# Hit rate of the full screen: of about 44,000 compounds, about 340 (0.77%) were called active. Not shown: some 5% with an inconclusive outcome. Calls follow the shape of the dose curve; as a rule, active = well fitted inhibition curve with a large enough effect; inconclusive = small, poorly fitted or top-dose-only effect; inactive = flat fitted curve, though single readings scatter. Some of the results follow.
# Assay: Acumen qHTS Assay for Inhibitors of the mTORC1 Signaling Pathway in MEF (Tsc2-/-, p53-/-) Cells: Sytravon;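 also: plate controls were DMSO for no effect and rapamycin for full effect; nearly all actives have a fitted effect of over 50% in size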
# Conditions: phospho-rpS6 immunofluorescence/PI, 24 h; series mostly up to 38.3 µM; activity change, negative = inhibition: at the top concentration
# Outline: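 Plate MEFs (Tsc2-/-, p53-/-, empty vector) in DMEM/10% FBS; after 24 h add compound, incubate 24 h at 37 degree Celsius; fix in PFA/TX-100, block, stain phospho-rpS6 and 10 uM PI; scan at 488 nm; report % positive cells.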
row,SMILES,"activity change, negative = inhibition"
1,CCOc1ccccc1NC(=O)CN1C(=O)COc2ccc(S(=O)(=O)N3CCOCC3)cc21,inactive: 1.47%
2,CCN(c1ccccc1)S(=O)(=O)c1ccc(NC(=O)c2nc(SC)ncc2Cl)cc1,inactive: -2.82%
3,CCN(CC)c1ccc(NC(=O)C2CCN(c3nnc(-n4cccc4)s3)CC2)c(C)c1,inactive: -15.5%
4,Cc1cc(C)n(C(C)CC(=O)Nc2cccc(C(F)(F)F)c2)n1 (stereo unspecified),inactive: -14.3%
5,O=C(Nc1cc(-c2nc3ccccc3o2)ccc1Cl)c1sc2c([N+](=O)[O-])cccc2c1Cl,inactive: -4.66%
6,CC(C)(C)OC(=O)N1CCC(c2c(C(=O)NCc3cccc(Cl)c3)cnn2-c2ccc(F)cc2)CC1,inactive: -11.8%
7,CCOc1ccc(CN2CCc3nc(N4CCN(c5ccccc5OC)CC4)ncc3C2)cc1OC,inactive: -0.004%
8,CCc1ccccc1NC(=O)CSc1nc(-c2cccc(Cl)c2)nc2c1Cc1c(CO)cnc(C)c1O2,inactive: -0.69%
9,COc1cc(/C=C(\C#N)C(=O)NCC2CCCO2)ccc1O (stereo unspecified),inactive: 0.648%
10,COc1ccc(-n2c(-c3ccc(C)cc3)cc3c2CC(C)(C)CC3=O)cc1Cl,inactive: -1.5%
11,Cc1ccccc1C(=O)Nc1nnc(S(=O)(=O)N(C)Cc2ccccc2)s1,inactive: -2.37%
12,O=C(NCCCN1CCCCC1)c1sc2ncccc2c1-n1cccc1,inactive: -4.87%
13,CC1CCN(C(=O)Cn2c(=O)n(CC3CCC(C(=O)NC(C)C)CC3)c(=O)c3sccc32)CC1 (stereo unspecified),inactive: 5.04%
14,CCOC(=O)c1ccc(NC(=O)CC2C(=O)N(c3ccc(F)cc3)C(=O)N2Cc2cccnc2)cc1 (stereo unspecified),inactive: 0.369%
15,COc1ccc(-c2nc(SCC(=O)NC3CCCC3)c(-c3ccc(F)cc3)[nH]2)cc1,inactive: -2.3%
16,CC(C)c1ccc(Cn2c(COc3ccccc3)nc3ccccc32)cc1,inactive: 1.89%
17,CCn1nc(C)c2c(-c3ccccc3)cc(=O)n(C(C)C(=O)NCCC(C)C)c21 (stereo unspecified),inactive: 1.95%
18,CC(=O)Nc1ccc(NC(=O)CCc2nc3cccnc3n2Cc2cccs2)cc1,inactive: 0.0134%
19,Cc1ccc(NC(=O)Cn2nc(C(=O)Nc3ccc(C)cc3)ccc2=O)cc1,inactive: -5.59%
20,CC1CCN(Cc2c(O)ccc3c(=O)c(Oc4ccccc4Cl)c(C(F)(F)F)oc23)CC1,inactive: 0.498%
21,COc1ccc(CNS(=O)(=O)c2ccc(N3CCCCS3(=O)=O)cc2)cc1,inactive: 0.278%

row,SMILES,"activity change, negative = inhibition"
1,CCc1ccc(OC(C)C(=O)N2CCC(c3nc4ccccc4o3)CC2)cc1 (stereo unspecified),inactive: -6.43%
2,Cc1ccc(C(=O)Nc2ccc3c(c2)n(C)c(=O)c(=O)n3C)cc1,inactive: -25.4%
3,O=C(COc1ccccc1F)Nc1ccc2nc(SCCOc3ccccc3)sc2c1,inactive: -1.49%
4,Cc1ccc(NC(=O)Cn2c(=O)n(Cc3nc(-c4ccccc4)no3)c(=O)c3cc4c(cc32)OCO4)cc1F,inactive: 0.0504%
5,COc1ccc(NC(=O)CC2C(=O)N(c3cccc(OC)c3)C(=O)N2CCc2cccs2)cc1 (stereo unspecified),inactive: 1.94%
6,CCCCN(CC)CCCNC(=O)CS(=O)(=O)Cc1nc(-c2ccc(C)cc2)oc1C,inactive: -11.6%
7,CCOc1ccc(CCNC(=O)C2CCN(C(=O)N3CC(CC)Oc4ccccc43)CC2)cc1 (stereo unspecified),inactive: -1.9%
8,CCCOc1ccc(C(=O)Nc2ccc3oc(-c4ccncc4)nc3c2)cc1,inactive: 4.61%
9,O=C(Nc1nnc(N2CCCCCC2)s1)Nc1cc(F)ccc1F,inactive: -9.24%
10,CCOCCCN(Cc1ccco1)S(=O)(=O)c1cc2c(cc1Cl)NC(=O)CO2,inactive: -11.3%
11,Cc1c2cnn(CC(=O)NCc3ccc(F)cc3)c(=O)c2c(C)n1Cc1cccc(Cl)c1,inactive: -10.1%
12,O=C(NCc1ccc(Cl)cc1)c1cnc2sc(N3CCOCC3)nn2c1=O,inactive: -3.42%
13,Cc1ccccc1-c1noc(-c2ccc(N3CCCCC3)c([N+](=O)[O-])c2)n1,inactive: 2.81%
14,COc1ccc(NC(c2nnc(-c3ccccc3)o2)c2ccccc2F)cc1Cl (stereo unspecified),inactive: -0.167%
15,COc1cc(NC(=O)CSc2nnc(C)n3c2cc2oc(C)cc23)cc(OC)c1,inactive: -8.61%
16,Cn1nnc2c(N3CCN(c4cccc(Cl)c4)CC3)ncnc21,inactive: 1.38%
17,COCCN(Cc1cccs1)S(=O)(=O)c1cc(-c2cc(C)no2)ccc1C,inactive: -3.01%
18,COCCCNC(=O)c1c(NC(=O)Cc2coc3c(C)c(C)ccc23)sc2c1CCCC2,inactive: 2.9%
19,COc1cccc(CNC(=O)CCS(=O)(=O)c2ccc3c(c2)oc(=O)n3C)c1,inactive: 2.62%
20,CCC(Sc1nnc2c(n1)[nH]c1ccccc12)C(=O)Nc1nnc(C(C)C)s1 (stereo unspecified),inactive: -0.624%
21,CCCCOC(=O)c1c(N)n(-c2ccc(OC)cc2OC)c2nc3ccccc3nc12,inactive: -4.95%

row,SMILES,"activity change, negative = inhibition"
1,Cc1ccc(CCNS(=O)(=O)c2cc(-c3cc(C)no3)ccc2C)cc1,inactive: -0.562%
2,O=C(NC1CC(=O)N(c2cccc(F)c2)C1)c1cccs1 (stereo unspecified),inactive: 1.14%
3,CCOc1ccc(C(=O)NCc2ccc3c(c2)CCN3C(=O)c2ccc(Cl)cc2)cc1,inactive: -1.64%
4,Cc1cccc(-n2ncc(C(=O)N3CCOCC3)c2C2CCN(C(=O)OC(C)(C)C)CC2)c1,inactive: -1.7%
5,CC(C)N(C(=O)Cn1cc(SCC(=O)Nc2ccccc2F)c2ccccc21)C(C)C,inactive: -10.1%
6,CCc1ccc(OCC(=O)NC(Cc2c[nH]c3ccccc23)C(=O)O)cc1 (stereo unspecified),inactive: 0.892%
7,CC(C)C(=O)Nc1ccc2nc(SCC(=O)N3CCCC3)sc2c1,inactive: 0%
8,CCCN(C(=O)c1cc2c(=O)oc3ccccc3c2s1)c1ccc(CC)cc1,inactive: -3.79%
9,Cc1ccccc1Nc1cc(C(=O)NCCCN2CCN(c3cccc(Cl)c3)CC2)c2ccccc2n1,inactive: 2.17%
10,Cc1c(Cl)cccc1NC(=O)N1CCN(C(=O)c2nsc3ccccc23)CC1,inactive: 0%
11,CCc1ccc(NC(=O)c2ccc(CN3CC(=O)N4CCCCC4C3=O)cc2)cc1 (stereo unspecified),inactive: -7.02%
12,Cc1ccc(C(C)C)c(OCCSc2nc(-c3ccccc3F)nc3cc(=O)[nH]n23)c1,inactive: 3.34%
13,Cc1c(CCC(=O)NCCc2ccccc2)c(=O)oc2c(C)c(O)ccc12,inactive: 2.08%
14,COc1cccc(-n2c(=O)c3c(C)c(C)sc3n(CC(=O)NCCc3ccc(OC)c(OC)c3)c2=O)c1,inactive: 3.71%
15,COc1cccc(CNC(=O)c2cc(C)nc3c2c(C)nn3-c2ccc(C)cc2)c1,inactive: 3.03%
16,COc1ccc(OC)c(NC(=O)CSc2ccc(-c3cccs3)nn2)c1,inactive: -9.31%
17,COc1cc(OC)c(NC(=O)C2CCN(S(=O)(=O)c3c(C)noc3/C=C/c3c(C)cc(C)cc3C)CC2)cc1Cl,inactive: 2.23%
18,CN(Cc1ccccc1)C(=O)c1cn(C)c2ccc(S(=O)(=O)N3CCCCC3)cc2c1=O,inactive: -13.2%
19,CC12CN3CC(c4ccccc4)(CN(C1)C3c1ccc(O)cc1)C2=O (stereo unspecified),inactive: -2.28%
